# Data from the supplement of paper PMC3334620.
# The full ranking holds about 33,000 sequences; the median of “E-score (-0.5 to 0.5)” is about -0.04, and the highest 2% start at about 0.36. The list shows a part of the results.
# Target: T1, Hmlalpha2 (UniProt P0CY09)
# T1 sequence: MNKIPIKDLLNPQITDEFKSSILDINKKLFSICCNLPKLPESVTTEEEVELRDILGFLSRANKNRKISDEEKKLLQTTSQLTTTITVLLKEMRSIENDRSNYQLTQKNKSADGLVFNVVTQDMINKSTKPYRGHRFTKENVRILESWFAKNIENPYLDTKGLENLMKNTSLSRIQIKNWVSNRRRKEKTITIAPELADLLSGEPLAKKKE
# Assay: PBM E-score (8-mer binding enrichment) (E-score (-0.5 to 0.5)); higher = stronger / more preferred TF binding; most listed sequences are background and not binding sites
# Settings: protein concentration: 200 nM; construct: GST-full length
# Procedure, shortened: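 Yeast transcription factors, full-length or as DNA-binding domains, were expressed with a GST tag using PURExpress in vitro transcription/translation. At about 100-200 nM they were applied to universal all-10-mer Agilent arrays, double-stranded by primer extension on fresh or once-stripped slides. Fluorescent anti-GST detected bound protein, and masliner normalised the scans. E-scores for ungapped eight-base words, pooled with reverse complements, came from the Universal PBM Analysis Suite.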
row,Sequence,PBM E-score
1,AGAGCTCG,0.00185
2,CTTCAGGA,-0.163
3,AGTCAAAA,0.0605
4,ACACTTCA,0.127
5,CCAGCATA,-0.125
6,CTGGAAAA,-0.0326
7,CTAGTTAA,0.254
8,CTGCGGAC,0.0177
9,ACTGCAGA,-0.138
10,GGGTCCAC,-0.29
11,AACTCGGC,0.0254
12,ACCACAGC,-0.0275
13,CAGGGGTC,-0.216
14,CCTCGTCG,-0.159
15,TGGAGCCA,-0.222
16,AGATAGGC,-0.179
17,TACTAAGA,0.03
18,CGAGTCCG,-0.0403
19,CGACAGAG,-0.185
20,AAGACTGG,0.00969
21,GGAGCAGA,-0.191
22,AGAAGGTC,0.00402
23,GCCGAGGA,-0.0918
24,GAGGTGGA,-0.206
25,CGCGTAGA,0.359

row,Sequence,PBM E-score
1,AGAAGTAT,0.0902
2,ACCGAAGG,-0.206
3,AGCACGGG,-0.19
4,ACGTGCCG,0.113
5,CAATAGAG,-0.159
6,CATACCTA,0.0542
7,TCGTGACA,-0.00677
8,CCCCCGGG,-0.227
9,GGCTGTGA,-0.0826
10,GAGCAACC,-0.0516
11,ATTGAATA,0.233
12,ATTAGACG,-0.0757
13,CGAACGGC,-0.221
14,ATTATGAG,-0.0203
15,ATCCACAG,-0.178
16,AAAGTTGT,0.163
17,AACGAGGC,0.0571
18,AGTAGGGG,-0.302
19,AGTCTTCA,-0.143
20,GATTGCCA,-0.337
21,AACCAAAT,0.0969
22,CTGCGTTA,0.226
23,GCATGACA,0.188
24,CTTCGGCC,-0.171
25,ATAGACAT,0.15

row,Sequence,PBM E-score
1,GGAGACCC,-0.133
2,CGGCTGCC,-0.142
3,ACGGGCCG,0.0403
4,AGGATGTG,-0.00432
5,GATTTAGC,-0.196
6,TCCAGTCA,-0.168
7,ATTTACTC,0.301
8,TAAACCAA,0.239
9,AGCGTAAT,0.278
10,AGGTCGGA,-0.164
11,GCCCTTCA,-0.0954
12,TGCTTAAA,0.105
13,CATGTATC,0.405
14,CCAACGGG,-0.227
15,CGGTATCA,0.0147
16,GACGTCCC,-0.0971
17,AGAACATG,0.36
18,ACACAGGT,0.261
19,ATAAGTAG,0.099
20,AGTGGGAC,-0.101
21,AGGTGGCC,-0.226
22,CACAAGGG,-0.0508
23,ATGCGAAA,0.0514
24,CTTATCTA,0.136
25,AGATGCCA,-0.254

row,Sequence,PBM E-score
1,GGCCCGCA,-0.209
2,CCTTCCAG,-0.286
3,AATGAAGA,0.0315
4,CCATGACC,-0.348
5,AGAGCGTG,0.071
6,AGCCGCGC,-0.171
7,CCTTGACG,-0.164
8,AATTACGA,0.338
9,GGTCTCCA,-0.145
10,GAGTCTTA,-0.208
11,ATGTCATA,0.311
12,CACACCAA,0.178
13,GCCACCAA,-0.214
14,GTTCTAGA,-0.00839
15,TCGTCGAA,0.148
16,AGCTTTTG,0.0638
17,CTGCTCCA,-0.0373
18,TATTTTCA,0.143
19,ACTCGTCG,-0.0933
20,TCTGGGAA,-0.114
21,AGCTACCT,0.122
22,AATCGACA,0.255
23,ATTGCGAG,-0.141
24,CCTAGTTC,-0.153
25,AAGTATAG,-0.192

row,Sequence,PBM E-score
1,CAATGCGG,-0.0244
2,AGTACAAC,0.0989
3,GGACACAC,-0.0238
4,CACTAGGG,-0.26
5,CGAGCGCG,-0.0497
6,ACTCAGGG,-0.0229
7,CCTATGGC,-0.358
8,AAACGGTC,-0.117
9,AGAATGGG,-0.307
10,GGCCGAAA,-0.141
11,CTCCTTGC,-0.206
12,AACGAAGA,0.0512
13,GCGGTAAC,0.0897
14,AAGATCGG,-0.222
15,AAAACGTG,0.19
16,GCCGCGCA,-0.229
17,ACTCAGGA,-0.0372
18,GGCCGCAC,-0.236
19,TCGTAACA,0.246
20,GATGTAAA,0.433
21,AATCCCGT,0.107
22,ATTACGGA,0.144
23,GGAAAAGA,-0.11
24,AGGATCTA,-0.194
25,CCCTTAGC,-0.314

row,Sequence,PBM E-score
1,CACTAAAA,0.183
2,CGTTAAAC,0.278
3,TATGATCA,0.0587
4,GATCCGAA,-0.187
5,AGAGGTAA,0.0281
6,AGGGAAAC,-0.19
7,ATGGAACA,-0.00034
8,AAAGGTAA,0.154
9,ATAACAAG,0.352
10,CCTACAGG,-0.246
11,CCAGCCCG,-0.378
12,TCTTTCCA,-0.189
13,CTCCGGAA,-0.159
14,ACTATCCG,0.0341
15,GACTACGC,0.0838
16,ATATTTGG,-0.0343
17,CGATGGAC,0.0281
18,AATTCAAC,0.21
19,GGGCAGAC,-0.35
20,CACCGGCC,-0.228
21,CTCACTGA,-0.208
22,AATCGGCA,-0.103
23,CAAAAGAG,-0.199
24,GGCAGTGA,-0.211
25,AAAAGTTA,0.181

row,Sequence,PBM E-score
1,GCGTACGC,0.095
2,ACTTTCGA,-0.0861
3,ACACTCAT,0.23
4,ACGAAGTC,-0.0726
5,GCGGCCGC,-0.0941
6,ACGAAAGG,0.134
7,CATGCCCA,-0.146
8,CCCTAATC,-0.301
9,ATAAACGA,0.0891
10,AGCGTGTG,0.249
11,CAACGACG,0.0642
12,ACTCTAGA,-0.0977
13,ATCTTGGA,-0.077
14,CGAGACAC,-0.108
15,GTTGTTTA,0.34
16,AGGCCAAC,0.046
17,GCATGGAC,0.0576
18,CTGAATCA,0.0147
19,CAGACCGG,-0.159
20,ATTGATGC,-0.0476
21,GCATAACA,0.307
22,CGATCGAG,-0.0611
23,ATATAAAA,0.191
24,AGAGGCCG,-0.256
25,CCGGCACA,-0.211

row,Sequence,PBM E-score
1,ACTTATCT,0.0275
2,ACGGTTTA,0.0131
3,GCTTTTAC,0.299
4,GTGAACGA,0.0671
5,CACGAGAA,0.0514
6,GCGGTTAA,0.0547
7,GACCTAGC,-0.0413
8,CCATCGGA,-0.288
9,CTCGTGAA,0.0708
10,CGTCAGAC,-0.137
11,AGATTTTC,0.00766
12,CACGGCAG,-0.037
13,GTCTTTTA,0.112
14,CGTCCGAA,-0.0411
15,AACGGCGC,-0.255
16,AACGTAAA,0.325
17,ATAGGTCC,0.0522
18,ATGATGTG,0.0311
19,GCAAGTGC,-0.147
20,AGCCCCTG,-0.221
21,ATAGAAGG,-0.262
22,AACCCTAA,-0.0438
23,AGTGCCCG,-0.115
24,CTGCGCTC,-0.248
25,ACGCGTCT,0.0891

row,Sequence,PBM E-score
1,GACGTCAA,0.171
2,ATCTTTTA,0.137
3,GCACGGGC,-0.259
4,AAAGCCGT,0.0037
5,CTGAATGA,-0.0897
6,CTAGGAAC,-0.171
7,CTACAGCC,-0.113
8,AAAACTGC,0.0251
9,CGTGGACA,-0.00462
10,AACCGTTG,0.105
11,CGCATGCG,0.00712
12,ACGGTCGA,-0.0835
13,ACAGGGCC,-0.052
14,CCCACTTA,0.00418
15,CGCAACAG,0.041
16,CCAGATCG,-0.21
17,ACATAGAA,0.267
18,ATTTTCAA,0.047
19,CAAACTAC,0.0558
